Assay results from patent publication US20170334979A1 (published 2017).

Molecular target: 10GE
Experiment: purified sdAb binding

Sequence of 10GE (P07724 25-608): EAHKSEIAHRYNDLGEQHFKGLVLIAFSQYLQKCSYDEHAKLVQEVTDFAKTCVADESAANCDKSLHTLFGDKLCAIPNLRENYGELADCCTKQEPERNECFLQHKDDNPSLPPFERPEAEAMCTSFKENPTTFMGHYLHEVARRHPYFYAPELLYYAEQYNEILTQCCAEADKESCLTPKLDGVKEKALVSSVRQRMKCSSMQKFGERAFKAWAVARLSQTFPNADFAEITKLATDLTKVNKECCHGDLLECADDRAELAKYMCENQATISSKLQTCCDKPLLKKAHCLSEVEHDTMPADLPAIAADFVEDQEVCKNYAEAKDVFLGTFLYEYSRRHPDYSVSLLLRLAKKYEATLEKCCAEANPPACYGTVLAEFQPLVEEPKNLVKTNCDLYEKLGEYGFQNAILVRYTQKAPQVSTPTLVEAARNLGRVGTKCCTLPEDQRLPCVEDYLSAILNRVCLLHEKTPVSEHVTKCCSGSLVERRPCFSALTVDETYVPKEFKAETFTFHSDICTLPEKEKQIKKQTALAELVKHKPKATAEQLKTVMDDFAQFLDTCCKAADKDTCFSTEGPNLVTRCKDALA

Kd: 0.0161 µM
B1: mouse serum albumin (other)
chain: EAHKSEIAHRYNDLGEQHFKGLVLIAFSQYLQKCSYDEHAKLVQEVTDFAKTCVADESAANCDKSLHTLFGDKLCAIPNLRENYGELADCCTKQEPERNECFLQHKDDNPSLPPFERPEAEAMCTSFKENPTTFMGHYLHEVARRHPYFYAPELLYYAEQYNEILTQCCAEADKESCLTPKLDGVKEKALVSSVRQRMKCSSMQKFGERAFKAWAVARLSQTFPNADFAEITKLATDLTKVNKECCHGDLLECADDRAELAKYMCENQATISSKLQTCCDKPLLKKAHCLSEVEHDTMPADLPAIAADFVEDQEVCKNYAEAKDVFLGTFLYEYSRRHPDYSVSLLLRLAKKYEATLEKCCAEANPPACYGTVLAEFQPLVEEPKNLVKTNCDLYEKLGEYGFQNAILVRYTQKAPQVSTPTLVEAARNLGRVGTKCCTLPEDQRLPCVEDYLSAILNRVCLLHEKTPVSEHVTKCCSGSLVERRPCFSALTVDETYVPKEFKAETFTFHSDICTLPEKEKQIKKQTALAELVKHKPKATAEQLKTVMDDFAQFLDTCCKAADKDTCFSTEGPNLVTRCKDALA
